According to PMC4336329 (PLoS ONE, 2015):
The whole screen tested about 310,000 compounds, of which about 14,000 (4.5%) showed an effect of 50% or more. The effect is printed as a negative number. This is one part of the list.

The compounds below were run against human ether-à-go-go-related gene (hERG) potassium channel (human, UniProt Q12809) (assay: primary screen, population patch clamp on CHO cells stably expressing hERG).
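Also: peak tail current of the secondary pulse compared with the same well before compound.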

Chain of human ether-à-go-go-related gene (hERG) potassium channel (Q12809 whole entry, looked up): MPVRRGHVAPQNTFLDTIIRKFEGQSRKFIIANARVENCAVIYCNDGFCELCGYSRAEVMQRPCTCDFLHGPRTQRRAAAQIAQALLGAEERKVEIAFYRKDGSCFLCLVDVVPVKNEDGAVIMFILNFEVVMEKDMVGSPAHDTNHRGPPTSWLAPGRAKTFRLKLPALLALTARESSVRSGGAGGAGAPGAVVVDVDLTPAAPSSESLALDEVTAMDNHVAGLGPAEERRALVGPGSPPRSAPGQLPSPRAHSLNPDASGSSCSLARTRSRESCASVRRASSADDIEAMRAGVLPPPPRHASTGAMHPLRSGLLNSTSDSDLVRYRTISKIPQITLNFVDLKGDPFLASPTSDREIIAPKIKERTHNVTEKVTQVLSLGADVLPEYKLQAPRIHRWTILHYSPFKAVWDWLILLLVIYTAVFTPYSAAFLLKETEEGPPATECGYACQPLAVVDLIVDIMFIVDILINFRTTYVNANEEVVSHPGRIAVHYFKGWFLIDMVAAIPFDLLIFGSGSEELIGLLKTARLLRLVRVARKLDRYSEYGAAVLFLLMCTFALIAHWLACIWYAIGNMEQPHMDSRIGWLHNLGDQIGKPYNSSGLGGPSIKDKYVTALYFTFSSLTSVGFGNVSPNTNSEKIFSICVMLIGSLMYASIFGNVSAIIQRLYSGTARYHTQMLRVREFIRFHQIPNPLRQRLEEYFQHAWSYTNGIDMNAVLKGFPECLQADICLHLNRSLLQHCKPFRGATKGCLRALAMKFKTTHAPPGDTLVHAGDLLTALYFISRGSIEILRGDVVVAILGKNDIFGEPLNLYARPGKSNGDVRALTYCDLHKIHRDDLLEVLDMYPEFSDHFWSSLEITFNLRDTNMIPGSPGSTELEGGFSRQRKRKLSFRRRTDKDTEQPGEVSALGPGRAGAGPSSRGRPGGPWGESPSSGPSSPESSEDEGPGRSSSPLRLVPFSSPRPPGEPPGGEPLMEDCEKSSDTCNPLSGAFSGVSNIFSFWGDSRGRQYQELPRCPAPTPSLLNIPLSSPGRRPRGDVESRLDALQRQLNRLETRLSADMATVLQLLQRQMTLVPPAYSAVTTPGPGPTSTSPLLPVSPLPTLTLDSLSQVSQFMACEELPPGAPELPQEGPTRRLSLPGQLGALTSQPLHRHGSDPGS

| SMILES | hERG current change (%, negative = inhibition) at 10uM [%] |
| --- | --- |
| CC(=O)Oc1ccc(C(=O)[C@H]2[C@H]3C(=O)N(c4ccc(C)cc4)C(=O)[C@H]3[C@@H]3C=CC=NN32)cc1 | 10.7 |
| COc1ccc(C(=O)NCC(=O)NCCc2c[nH]c3ccccc23)cc1OC | -3.02 |
| O=C(NCCOc1ccccc1)C(=O)c1c[nH]c2ccccc12 | -2.05 |
| Cc1cc(=O)oc2c(C)c3occc3cc12 | 12.5 |
| O=C(NC(Cc1c[nH]c2ccccc12)C(=O)O)c1cccs1 (stereo not drawn) | 18.6 |
| CCOC(=O)C1C(=O)CC(C)(O)C(C(=O)OCC)C1c1cc(Br)ccc1OC (stereo not drawn) | 7.34 |
| Cc1ccc(S(=O)(=O)CCC(=O)OCC(=O)NCC(=O)Nc2cccc(C)c2C)cc1 | 6.9 |
| Cc1ccc(NC(=O)c2ccc3nc[nH]c3c2)c(O)c1 | -2.67 |
| O=C1CC(c2ccccc2)C(=O)N1c1cccc(O)c1 (stereo not drawn) | -19.3 |
| Cc1ccc(NC(=S)NCc2ccc3c(c2)OCO3)cc1 | 2.97 |
| FC(F)(F)c1cc(-c2ccco2)nc(-n2cnc3ccccc32)n1 | -1.12 |
| CCc1ccc(CN(C)C(C)C(=O)NCc2ccccc2)cc1 (stereo not drawn) | -23.5 |
| O=C(Nc1nnc(-c2ccc(Cl)s2)o1)C1CCCCC1 | 5.74 |
| COc1ccc(S(=O)(=O)N2CCC(NC(=O)c3cccc(F)c3)CC2)cc1 | 15.4 |
| Cc1c(Cl)cccc1NC(=O)NCc1ccc(C)n1C | 10 |
| COc1ccc(CN(C)CC(O)COC(c2ccccc2)c2ccccc2)c(OC)c1OC (stereo not drawn) | -76.7 |
| C=C(C)COc1ccc2c(C)c(C)c(=O)oc2c1OCC(=C)C | 7.58 |
| COc1cccc(OC)c1C(=O)NC(=S)Nc1ccc2oc(=O)ccc2c1 | 6.35 |
| COC(=O)c1sccc1NC(=O)c1cc(OC)cc(OC)c1 | -3.2 |

| SMILES | hERG current change (%, negative = inhibition) at 10uM [%] |
| --- | --- |
| COc1ccc2[nH]c(=O)c(CN(CCO)C(=O)c3cccs3)cc2c1 | -6.12 |
| COc1ccc(CC(=O)NCC(=O)NCc2cc(=O)n(C)c(=O)n2C)cc1 | 14.3 |
| CCN=C1S/C(=C\c2cc(Br)c(O)c(OC)c2)C(=O)N1CC | -8.02 |
| CC1(C)C=Cc2c(ccc(-c3coc4cc(O)ccc4c3=O)c2O)O1 | -1.86 |
| CN1CCN(CC(=O)N2c3ccccc3Sc3ccccc32)CC1 | -13.7 |
| C=CCNC(=O)C(=O)c1c(-c2ccccc2)[nH]c2ccccc12 | 2.13 |
| CN(CC(=O)Nc1ccc(F)c(F)c1F)C(=O)c1cc(-c2ccncc2)nc2ccccc12 | -47.1 |
| COC(=O)c1c(C)oc2ccc(N(C(=O)c3ccncc3)S(=O)(=O)c3ccccc3)cc12 | -17.3 |
| CC(=O)NC1(C(F)(F)F)C(=O)Nc2c1c(=O)n(C)c(=O)n2C (stereo not drawn) | 5.62 |
| COc1ccc(CN(C)Cc2nc(Cc3cccc(F)c3)no2)c2cccnc12 | -12.5 |
| O=C(CSc1nccc(=O)[nH]1)Nc1ccc(Oc2ccccc2)cc1 | -3.01 |
| c1ccc(-c2csc3ncnc(N4CCc5ccccc5C4)c23)cc1 | -1.81 |
| CC(=O)NCCNC(=O)c1ccc(Sc2ccccc2)c([N+](=O)[O-])c1 | -47.9 |
| CC(Cc1ccccc1)(NC(=O)CN)c1ccccc1.Cl (stereo not drawn) | 13.4 |
| COCCN1C(=O)N[C@@H](CCc2ccccc2)C(C(C)=O)=C1C | 1.88 |
| COc1cccc(Nc2nc(N)nc(C(F)(F)F)n2)c1 | -8.49 |
| CCc1ccc(-c2csc3nc[nH]c(=O)c23)cc1 | 3.15 |
| N#Cc1cccc(C#N)c1Oc1ccc(S(=O)(=O)Nc2ccccc2)cc1 | -10.5 |
| O=C(Nc1ccc(Nc2ccccc2)cc1)c1ccc(Cl)cc1[N+](=O)[O-] | 5.6 |

| SMILES | hERG current change (%, negative = inhibition) at 10uM [%] |
| --- | --- |
| N#C/C(=C\c1ccc(F)cc1F)S(=O)(=O)c1ccccn1 | 6.77 |
| Cc1cc(=O)oc(C)c1C(=O)NCCN1CCOCC1 | 1.31 |
| CCOc1cc(CNCc2cccnc2)cc(Br)c1OCC(N)=O.Cl | 7.26 |
| CN(C1CCCCC1)S(=O)(=O)c1ccc(NC(=O)c2ccc(Br)o2)cc1 | -0.948 |
| COc1cccc(/C=N/NC(=O)CNC(=O)COc2ccccc2)c1O | -7.17 |
| COc1cc(/C=C2\SC(N)=NC2=O)cc(Cl)c1O | 20.2 |
| CCC(=O)NC(=S)Nc1ccc(N2CCOCC2)cc1 | -2.62 |
| Clc1ccc(C2[C@H]3CN(CC4CCCCC4)[C@H](c4ccccc4)C34CC2(c2cccnc2)C4)cn1 (stereo partly drawn) | -26.1 |
| CS(=O)(=O)N1CCc2cc(S(=O)(=O)N3CCN(Cc4ccc5c(c4)OCO5)CC3)ccc21 | 0.728 |
| Cc1cc(C)cc(OCC(O)CN2C(=O)NC(C)(C)C2=O)c1 (stereo not drawn) | 26.5 |
| Cc1sc(N)nc1-c1ccccc1 | 3.49 |
| Nc1[nH]ncc1C(=O)Nc1cccc(C(F)(F)F)c1 | -12.7 |
| COc1ccccc1C(=O)NCC1(c2ccccc2)CCCC1 | 1.65 |
| CCc1noc(C)c1C(=O)N(C)CC(=O)Nc1ccccc1Br | -11.1 |
| O=[N+]([O-])c1cc(/C=N/Nc2nc(N3CCCCC3)nc(N3CCCCC3)n2)ccc1O | 11.1 |
| Cc1ccc(CCC(=O)NCc2ccccc2)o1 | 8.56 |
| CC(C)c1ccc(C2NCc3ccccc3-n3cccc32)cc1.Cl (stereo not drawn) | 2.86 |
| Cc1ccc(-n2c(C)cc(C(=S)N3CCOCC3)c2C)cc1C | -2.75 |
| COc1ccc(CCNC(=O)c2c(N)n(CCN3CCOCC3)c3nc4ccccc4nc23)cc1 | -0.58 |
